“And” between values parts separate entries of the source, which are not always exact repeats. Equal values may be shown once. The campaign covered roughly 360,000 compounds. About 16,000 (4.4%) were called active. Inconclusive means that the source gave no clear call. Such entries were picked first, then a sample of the others. Calls follow the shape of the dose curve; as a rule, active = well fitted inhibition curve with a large enough effect; inconclusive = small, poorly fitted or top-dose-only effect; inactive = no such curve, though single readings can be large or run the other way. Where the call is inconclusive, the potency comes from a doubtful curve fit.
These compounds were tested against Bromodomain adjacent to zinc finger domain protein 2B (Homo sapiens) (UniProt Q9UIF8) (assay: qHTS Assay for Inhibitors of BAZ2B). Conditions: AlphaScreen BAZ2B-H3K14Ac peptide displacement; series mostly up to 114 µM.
Chain of UniProt Q9UIF8 (Q9UIF8 whole entry, looked up, the tested form may be a part): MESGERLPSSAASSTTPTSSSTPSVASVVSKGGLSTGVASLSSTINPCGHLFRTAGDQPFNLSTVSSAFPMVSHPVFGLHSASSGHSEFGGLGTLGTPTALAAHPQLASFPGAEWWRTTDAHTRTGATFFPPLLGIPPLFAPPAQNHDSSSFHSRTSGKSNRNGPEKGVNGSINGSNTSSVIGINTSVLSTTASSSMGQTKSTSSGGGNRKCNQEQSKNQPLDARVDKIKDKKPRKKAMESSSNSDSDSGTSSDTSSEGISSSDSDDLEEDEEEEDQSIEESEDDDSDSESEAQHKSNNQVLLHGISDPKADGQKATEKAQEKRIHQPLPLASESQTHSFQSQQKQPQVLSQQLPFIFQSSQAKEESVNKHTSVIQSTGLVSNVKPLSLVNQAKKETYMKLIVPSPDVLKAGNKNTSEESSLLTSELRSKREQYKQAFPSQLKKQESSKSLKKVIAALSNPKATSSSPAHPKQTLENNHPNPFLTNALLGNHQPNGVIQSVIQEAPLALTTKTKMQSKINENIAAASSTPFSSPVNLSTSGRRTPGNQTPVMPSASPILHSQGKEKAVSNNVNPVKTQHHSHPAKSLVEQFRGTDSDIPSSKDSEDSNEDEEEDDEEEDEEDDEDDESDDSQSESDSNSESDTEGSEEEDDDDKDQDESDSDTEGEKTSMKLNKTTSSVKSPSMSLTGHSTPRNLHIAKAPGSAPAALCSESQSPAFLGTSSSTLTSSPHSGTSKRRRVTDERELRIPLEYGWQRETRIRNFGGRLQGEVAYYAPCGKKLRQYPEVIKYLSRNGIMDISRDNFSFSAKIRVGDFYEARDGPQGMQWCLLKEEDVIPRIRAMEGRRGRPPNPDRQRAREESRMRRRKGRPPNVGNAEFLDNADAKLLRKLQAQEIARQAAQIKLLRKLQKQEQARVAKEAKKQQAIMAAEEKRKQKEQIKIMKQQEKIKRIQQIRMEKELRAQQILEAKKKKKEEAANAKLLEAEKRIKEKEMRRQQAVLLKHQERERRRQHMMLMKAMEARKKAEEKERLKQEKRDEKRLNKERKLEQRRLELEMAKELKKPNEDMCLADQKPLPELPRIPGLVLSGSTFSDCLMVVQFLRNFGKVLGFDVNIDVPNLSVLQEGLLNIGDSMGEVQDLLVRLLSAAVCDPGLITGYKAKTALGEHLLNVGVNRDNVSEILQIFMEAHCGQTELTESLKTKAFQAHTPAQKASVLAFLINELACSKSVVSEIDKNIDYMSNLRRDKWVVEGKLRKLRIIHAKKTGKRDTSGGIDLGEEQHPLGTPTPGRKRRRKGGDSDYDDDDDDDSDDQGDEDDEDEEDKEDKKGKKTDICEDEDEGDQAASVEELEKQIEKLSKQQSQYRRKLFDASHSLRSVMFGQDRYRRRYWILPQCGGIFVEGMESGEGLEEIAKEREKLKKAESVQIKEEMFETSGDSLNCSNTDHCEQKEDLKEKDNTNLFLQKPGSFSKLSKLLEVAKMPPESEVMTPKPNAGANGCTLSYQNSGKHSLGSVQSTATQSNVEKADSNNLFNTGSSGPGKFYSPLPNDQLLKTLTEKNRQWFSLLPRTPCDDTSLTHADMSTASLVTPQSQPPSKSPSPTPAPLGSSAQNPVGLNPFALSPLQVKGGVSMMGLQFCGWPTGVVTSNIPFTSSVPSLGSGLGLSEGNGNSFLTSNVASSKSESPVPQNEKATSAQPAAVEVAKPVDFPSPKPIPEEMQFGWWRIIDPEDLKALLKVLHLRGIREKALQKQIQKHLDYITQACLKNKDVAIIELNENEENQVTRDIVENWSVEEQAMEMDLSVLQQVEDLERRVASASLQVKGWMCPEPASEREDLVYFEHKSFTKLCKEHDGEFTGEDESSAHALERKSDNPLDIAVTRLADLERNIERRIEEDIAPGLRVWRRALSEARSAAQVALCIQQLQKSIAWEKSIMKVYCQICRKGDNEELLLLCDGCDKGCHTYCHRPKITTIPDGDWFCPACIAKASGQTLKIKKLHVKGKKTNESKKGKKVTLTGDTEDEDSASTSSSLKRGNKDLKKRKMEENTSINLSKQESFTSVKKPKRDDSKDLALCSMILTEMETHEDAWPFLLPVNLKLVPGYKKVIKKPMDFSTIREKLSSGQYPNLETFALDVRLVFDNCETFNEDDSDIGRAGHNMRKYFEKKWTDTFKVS
Summary of the method: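 Complex of BAZ2B and biotin-H3K14Ac (50 nM apiece) forms over 30 min at RT, then faces library compounds up to 110 uM for another 30 min; AlphaScreen beads added, 20 min dark incubation, luminescence read.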
Also: nearly all actives have a fitted effect of over 60% in size.
Potency is read from the fitted curve at half-maximal effect; tags tell the direction and shape of the fitted curve.

Compound | Potency
Cc1nn(Cc2ccccc2)c2c1C(c1ccco1)C(C#N)=C(N)O2 (centres undefined) | inconclusive: 89.1 µM [inhibitor, single point]
COC(=O)C(c1ccccc1)N1CCCCCC1 (centres undefined) | inconclusive: 79.4 µM [inhibitor, single point]
S=c1[nH]nc(-c2ccn[nH]2)n1-c1ccccc1Cl | active: 50.1 µM
CCc1ccc(N2C(=O)NC(=O)/C(=C\c3cc(C)n(-c4cc(C(=O)O)cc(C(=O)O)c4)c3C)C2=O)cc1 | active: 70.8 µM
Cc1c(C(c2ccc(Br)cc2)c2c(O)c3ccccc3oc2=O)c(=O)n(-c2ccccc2)n1C (centres undefined) | inconclusive: 89.1 µM [inhibitor, single point] and inconclusive: 79.4 µM [inhibitor, single point]
C=CCn1c(O)c(/C=N/NC(=O)CCCC)c(=O)[nH]c1=S | inconclusive: 89.1 µM [inhibitor, single point]
CCC(C)N1C(=O)/C(=C/c2ccc3c(c2)CCN3CCCCl)C(=O)NC1=S (centres undefined) | active: 50.1 µM
Cc1ccccc1-n1c(/C=C/c2ccccn2)nc2ccccc2c1=O | inactive
CC1=NN(c2ccccc2)C(=O)C1=C(C)C | inconclusive: 50.1 µM [inhibitor, partial curve]
CCOc1ccc(NC2=NCCCS2)cc1 | inactive
CSc1ncc(/C=C2/C(=O)NC(=O)N(c3ccc(C(C)C)cc3)C2=O)cn1 | inactive
Cc1ccccc1-n1c(O)c(/C=N/Nc2nc3c(c(=O)n(C)c(=O)n3C)n2C)c(=O)[nH]c1=S | inconclusive: 89.1 µM [inhibitor, single point]
O=C1NC(=O)N(c2ccccc2F)C(=O)/C1=C/c1ccc(Sc2nc3ccccc3[nH]2)o1 | active: 31.6 µM
O=C(c1ccc(N2CC3CC(C2)c2cccc(=O)n2C3)c([N+](=O)[O-])c1)N1CCCC1 (centres undefined) | inactive
O=C(Cc1ccccc1)Oc1ccc([N+](=O)[O-])cc1 | inconclusive: 39.8 µM [inhibitor, single point]
COC(=O)[C@@]1(C#N)[C@@H]2C=CC(C(C)=O)=CN2[C@@H](C(N)=O)[C@@H]1c1ccc(F)cc1 | inconclusive: 79.4 µM [inhibitor, single point]
CC(=O)Nc1nnc(CCN(CCc2nnc(NC(C)=O)s2)[N+](=O)[O-])s1 | inactive
Cn1cccc1CNCCc1ccccc1 | inconclusive: 100 µM [inhibitor, single point]
CCOc1cccc(C2NCc3ccccc3-n3cccc32)c1O (centres undefined) | inconclusive: 56.2 µM [inhibitor, partial curve]
COc1ccc(OC)c(C2C(C#N)=C(N)Oc3c2c(C)nn3-c2ccc(C)cc2)c1 (centres undefined) | active: 50.1 µM
O=C1NC(=O)N(c2ccccc2)C(=O)/C1=C/c1ccoc1 | inconclusive: 70.8 µM [inhibitor, single point]
CC(=NCc1ccco1)c1c(O)n(C2CCCCC2)c(=O)[nH]c1=O | inconclusive: 89.1 µM [inhibitor, single point]

Compound | Potency
CN(C)c1ccc(C=C2C(=O)NC(=S)NC2=O)cc1[N+](=O)[O-] | inconclusive: 79.4 µM [inhibitor, partial curve]
COc1ccc(Cn2c(O)c(/C=N/NC(=O)c3ccccc3O)c(=O)[nH]c2=O)cc1 | active: 50.1 µM
Cn1c(O)c(C2=NNC(c3ccc(Cl)cc3)C2)c(=O)n(C)c1=O (centres undefined) | active: 44.7 µM
CCCCOP(=O)(c1ccc(N(C)C)cc1)C(O)c1ccc(C(C)C)cc1 (centres undefined) | inconclusive: 79.4 µM [inhibitor, single point]
Cc1ccc(C(=O)Nc2ccc(-n3ccnc3P(=O)(O)c3ccccc3)cc2)cc1 | inconclusive: 89.1 µM [inhibitor, single point]
CCCC(=O)c1c(O)[nH]c(=O)[nH]c1=O | inconclusive: 89.1 µM [inhibitor, single point]
CN1C(=O)/C(=C\c2ccc(N3CCCCCC3)cc2)C(=O)NC1=S | inconclusive: 50.1 µM [inhibitor, partial curve]
Cc1cc(C)c(Cn2c(C(=O)O)c(C=O)c3ccccc32)c(C)c1 | inconclusive: 100 µM [inhibitor, single point]
Nc1c2c(nc3sc4c(c13)CCCC4)CCCC2 | inactive
Cc1ccccc1CN1C(=O)C(C)N=C(c2ccccc2)c2ccccc21 (centres undefined) | inactive
O=c1[nH]c(=O)n(CCc2ccccc2)c(O)c1/C=N/N1CCOCC1 | inactive
C=CCn1c(O)c(C(CC)=NCCc2c[nH]c3ccccc23)c(=O)[nH]c1=O | inconclusive: 79.4 µM [inhibitor, single point]
COc1ccc2[nH]c3c(c2c1)CCN[C@H]3C | active: 44.7 µM
CC(C)(C)c1ccc(CN2C(=O)CN=C(c3ccccc3)c3ccccc32)cc1 | inconclusive: 89.1 µM [inhibitor, single point]
Cc1nc(C(=O)O)nn1-c1ccc([N+](=O)[O-])cc1 | inconclusive: 79.4 µM [inhibitor, single point]
CCOc1ccc(CN(CCc2ccc3c(c2)OCO3)Cc2ccc(OC)c(Br)c2)cc1 | inconclusive: 89.1 µM [inhibitor, single point]
C=CCn1c(O)c(C(C)=Nc2ccc(N(C)C)cc2)c(=O)[nH]c1=O | inconclusive: 50.1 µM [inhibitor, partial curve]
Cc1oc(-c2ccccc2)nc1CN1C(=O)CN=C(c2ccccc2)c2ccccc21 | inconclusive: 39.8 µM [inhibitor, partial curve]
O=C1CN=C(c2ccc(Br)cc2)c2c(sc3c2CCCC3)N1CCN1CCCCC1 | inconclusive: 50.1 µM [inhibitor, partial curve]
COc1ccc2c3c1OC1C(O)C=CC4C(C2)[N+](C)(C)CCC341 (centres undefined) | active: 22.4 µM
CC1=C/C(=N\NC(=S)NCCc2ccccc2)CC(C)(C)C1 | inconclusive: 39.8 µM [inhibitor, full curve]
CN1CCN(C(=O)COc2ccc(-c3nc4ccccc4s3)cc2)CC1 | inactive

Source: PubChem BioAssay AID504333 (National Center for Advancing Translational Sciences (NCATS), 2011)
